Results reported in PubChem BioAssay AID485294 (National Center for Advancing Translational Sciences (NCATS), 2010).
The campaign covered roughly 370,000 compounds. About 150 (0.041%) were called active. This list was built around the results that the source calls inconclusive (neither active nor inactive); the mix of calls is not that of the screen. Calls come from the whole dose curve; as a rule, active = well fitted inhibition curve with a large enough effect; inconclusive = small, poorly fitted or top-dose-only effect; inactive = flat fitted curve, though single readings scatter. No potency is given beside an inconclusive call; the fits are too rough.

target: Beta-lactamase (Escherichia coli (strain K12)) (UniProt P00811); experiment: qHTS Inhibitors of AmpC Beta-Lactamase (assay with detergent); conditions: AmpC hydrolysis of nitrocefin, absorbance 480 nm, 0.01% Triton; activity change, negative = inhibition: at 114 µM (top of the series); note: nearly all actives have a fitted effect of over 25% in size;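 for activity change, negative = inhibition: 0% = no-compound wells and -100% = no-enzyme wells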
UniProt P00811, sequence (P00811 whole entry, looked up): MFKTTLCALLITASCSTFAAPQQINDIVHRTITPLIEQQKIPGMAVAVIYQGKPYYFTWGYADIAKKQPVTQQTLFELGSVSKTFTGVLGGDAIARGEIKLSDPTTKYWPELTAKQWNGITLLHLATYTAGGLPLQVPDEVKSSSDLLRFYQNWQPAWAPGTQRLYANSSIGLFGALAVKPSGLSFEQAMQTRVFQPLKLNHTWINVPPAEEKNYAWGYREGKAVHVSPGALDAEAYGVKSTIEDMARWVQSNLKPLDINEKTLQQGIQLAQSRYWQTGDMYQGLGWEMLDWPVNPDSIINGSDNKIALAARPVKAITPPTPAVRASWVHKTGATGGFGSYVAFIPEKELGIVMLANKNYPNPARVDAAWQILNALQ
In short: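 20 mM phosphate pH 7.0 + 0.01% (detergent screen) or 0.0001% Triton X-100; 5.3 nM AmpC reagent; cpd preinc 15 min RT; nitrocefin (800 uM stock) to start; A480 q20 s × 4 min; Activity was normalised to no-enzyme and no-compound control wells.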
Potency is the fitted concentration of half-maximal effect; tags give direction and shape of the fitted curve.

Structure (SMILES)	activity change, negative = inhibition	Potency
Cc1ccn2c(NC3CCCC3)c(-c3ccncc3)nc2c1	inactive: 2.84%	
CSC(=O)NC12CC3CC(CC(C)(C3)C1)C2		inconclusive [inhibitor, full curve, poor fit]
COc1ccc2c(c1)n([O-])c1c([n+]2=O)CCC1		inconclusive [inhibitor, single point]
Cc1ccc(NC(=O)Cc2nc(CN(C)CC(=O)Nc3ccc(C)cc3)cs2)cc1		inconclusive [inhibitor, partial curve, poor fit]
CC(=O)C1=C(C)N(CC2CC2)C(=O)N[C@H]1c1ccc(Br)cc1		inconclusive [inhibitor, partial curve]
Cc1cc(C)cc(NC(=O)C2CCCN2/C=C/C(=O)C(F)(F)F)c1 (stereo not drawn)		inconclusive [inhibitor, partial curve]
NCC12CC3CC(CC(O)(C3)C1)C2		inconclusive [inhibitor, partial curve]
CCOC(=O)c1ccc(N2C(=O)CC(N(Cc3ccc4c(c3)OCO4)C(=O)Nc3ccccc3)C2=O)cc1 (stereo not drawn)		inconclusive [inhibitor, full curve, poor fit]
COc1cc(-c2nnc(SCc3cc(=O)oc4cc(C)ccc34)o2)cc(OC)c1OC		inconclusive [inhibitor, full curve, poor fit]
CC(Cl)c1cc(-c2ncc(C(F)(F)F)cc2Cl)no1 (stereo not drawn)	inactive: 4.12%	
CC(NC(=O)c1ccc(S(=O)(=O)NCc2ccco2)cc1)c1ccc(F)cc1 (stereo not drawn)	inactive: -0.513%	
Cc1ccc(C(=O)Nc2ncc(Cc3ccc(F)cc3)s2)o1		inconclusive [inhibitor, single point]
COc1ccc(C(C)=O)cc1COc1cccnc1[N+](=O)[O-]		inconclusive [inhibitor, full curve, poor fit]
Cc1ccc(S(=O)(=O)/N=C2/NC(=O)/C(=C/c3ccc(Br)o3)S2)cc1		inconclusive [inhibitor, partial curve]
CCOC(=O)[C@H]1[C@H]2COc3cc(OC)ccc3[C@@H]2N2C(=O)CN(Cc3ccc(OC)cc3)C(=O)[C@@]12C	inactive: -6.68%	
C/C(=N\NC(=O)CC1(C)OCCO1)c1cccs1		inconclusive [inhibitor, full curve, poor fit]
CC(C)C(=O)NCCc1c[nH]c2ccccc12	inactive: -1.86%	
CN(C)S(=O)(=O)c1ccc(NC(=O)CN2CCCCCC2)cc1	inactive: -5.52%	
FC(F)(F)c1ccccc1-n1c(-c2cnccn2)n[nH]c1=S	inactive: 7.49%	
O=C(O)C1C2C=CC(O2)C1C(=O)NCCC1=CCCCC1 (stereo not drawn)	inactive: 4.83%	
Cc1cccc([C@@H]2[C@@H]3C(=O)N(Cc4ccccc4)C(=O)[C@@H]3[C@]3(Cc4ccccc4)C(=O)N(c4ccccc4)C(=O)N23)c1	inactive: -2.48%	
COc1cc(C2NC(=S)NC(c3ccccc3)=C2C(C)=O)cc(Cl)c1OCC(=O)O (stereo not drawn)		inconclusive [inhibitor, partial curve]
COc1ccc(C2=C/C(=C\c3ccc(OC(C)=O)cc3)C(=O)O2)cc1	inactive: -4.59%	

Structure (SMILES)	activity change, negative = inhibition	Potency
CCc1nnc(NC(=O)CN2C(=O)c3ccccc3S2(=O)=O)s1		inconclusive [inhibitor, full curve]
COc1cccc(N(CC(=O)NCCSc2ccccn2)S(C)(=O)=O)c1		inconclusive [inhibitor, single point]
CCOC(=O)N1CCN(C(=O)c2ccc(CN(c3ccccc3)S(C)(=O)=O)cc2)CC1		inconclusive [inhibitor, full curve]
CCOC(=O)c1c(C)n(-c2ccccc2)c2ccc(O)cc12	inactive: -3.54%	
O=C(c1ccncc1)c1nccn1-c1ccccn1		inconclusive [inhibitor, partial curve]
COC(CCN(C)C)(c1ccccc1)c1ccccc1		inconclusive [inhibitor, full curve, poor fit]
O=C(CSC1=NCCN1)Nc1cccc(C(F)(F)F)c1		inconclusive [inhibitor, single point]
Cc1cc(C(=O)Nc2cccc([N+](=O)[O-])c2C)cs1	inactive: 2.83%	
C/C(=N\NC(=O)c1ccncc1)c1cccc(NC(=O)c2ccc(C(C)(C)C)cc2)c1	inactive: -10.3%	
COc1ccccc1CNC(=O)CN1C(=O)CCc2cc(S(=O)(=O)N3CCCCC3)ccc21		inconclusive [inhibitor, single point]
O=C(CSc1nc(-c2cccs2)nc2cc(=O)[nH]n12)Nc1ccccc1	inactive: -4.04%	
COc1cccc2cc(C(=O)NC3CC4CCC3C4)oc12 (stereo not drawn)	inactive: -6.92%	
O=C1CC(N2CCC(c3nc4ccccc4o3)CC2)C(=O)N1c1ccc(Cl)c(C(F)(F)F)c1 (stereo not drawn)		inconclusive [inhibitor, full curve, poor fit]
CCOC(=O)c1c(C)n(C)c2ccc(OC)c(NC(=O)CCN3CCSCC3)c12		inconclusive [inhibitor, full curve, poor fit]
Cc1nnc(SCc2ccccc2)n1CC1CCCO1 (stereo not drawn)		inconclusive [inhibitor, partial curve]
CN(CC(=O)Nc1ccc(F)cc1)C(=O)COC(=O)c1cc([N+](=O)[O-])ccc1N1CCOCC1		inconclusive [inhibitor, partial curve, poor fit]
COCCCN(Cc1ccco1)C(=O)c1cc2c(s1)-c1ccccc1OC2	inactive: 1.82%	
COC(=O)c1ccc(-n2c(C)cc(/C=N/n3cnnc3)c2C)cc1		inconclusive [inhibitor, full curve, poor fit]
COc1ccccc1C(=O)N1CCc2ccccc21		inconclusive [inhibitor, full curve]
COCCCNC(=O)CCn1c(=O)c2ccccc2n(CC(=O)Nc2ccc(C)cc2C)c1=O		inconclusive [inhibitor, full curve]
COc1ccc(-c2ccnc(-c3ccc(OCCCF)cc3)n2)cc1	inactive: 9.86%	
Cc1cccc(C(=O)NNC(=O)c2ccccc2-n2cccc2)c1		inconclusive [inhibitor, full curve]
CC12CCC(=O)N1C(C(=O)Nc1nc(-c3ccccc3Cl)cs1)CS2 (stereo not drawn)		inconclusive [inhibitor, full curve, poor fit]

Structure (SMILES)	activity change, negative = inhibition	Potency
Cc1nc(-c2cccc(S(=O)(=O)N3CCOCC3)c2)cs1	inactive: -7.96%	
C/C(O)=C(/C=Nc1ccccc1)C(=O)Nc1ccccc1		inconclusive [inhibitor, partial curve]
CC(C)COc1ccc(C(=O)Nc2ccc(NC(=O)c3ccco3)c(Cl)c2)cc1	inactive: -5.92%	
CCCCC(=O)Nc1ncc2c(n1)CC(C)(C)CC2=O		inconclusive [inhibitor, full curve, poor fit]
COc1ccc(S(=O)(=O)n2nc(C)c(S(=O)(=O)N3CCCCC3)c2C)cc1	inactive: 20.8%	
COc1ccc(-c2nn(CCC(=O)O)cc2/C=C2\SC(N)=NC2=O)cc1OC		inconclusive [inhibitor, partial curve, poor fit]
COc1ccc(NC(=O)N2CCN(S(C)(=O)=O)CC2)cc1OC		inconclusive [inhibitor, partial curve, poor fit]
O=C(NC1CCCC1)c1ncn[nH]1		inconclusive [inhibitor, single point]
O=C(CSc1ncnc2c1oc1ccccc12)Nc1nc2ccccc2s1		inconclusive [inhibitor, partial curve, poor fit]
C=CCn1c(C(O)c2ccccc2)nc2ccccc21 (stereo not drawn)		inconclusive [inhibitor, partial curve]
COC(=O)C1C(=O)c2c([nH]c(C(=O)OC3CCCC3C)c2C)CC1C (stereo not drawn)		inconclusive [inhibitor, full curve, poor fit]
CC(C)c1ccccc1NC(=O)CNCCOc1ccccc1F		inconclusive [inhibitor, single point]
CCOC(=O)N1CCN(C(=O)c2ccc(CS(=O)(=O)c3c(Cl)cccc3Cl)o2)CC1	inactive: -13.4%	
COc1cc(C)ccc1OCc1cc(C(=O)NCCN2CCOCC2)no1		inconclusive [inhibitor, full curve]
Cn1cccc1-c1cc(C(=O)N/N=C/c2ccc(Cl)cc2)[nH]n1		inconclusive [inhibitor, partial curve, poor fit]
CN(Cc1ccccc1)C(=C(Cl)Cl)/C(=C1/NCCN1Cc1ccc(Cl)nc1)[N+](=O)[O-]		inconclusive [inhibitor, full curve]
COc1ccc(CCNC(=O)Cn2cnc3c(cnn3C(C)(C)C)c2=O)cc1OC	inactive: 0.0708%	
O=S(=O)(c1ccccc1)N1CC1c1ccccc1 (stereo not drawn)		inconclusive [inhibitor, full curve, poor fit]
CCc1nc(SCC(=O)N2c3ccccc3Sc3ccccc32)c2ccccc2n1		inconclusive [inhibitor, partial curve, poor fit]
CN(CC(=O)Nc1ccccc1Cl)C(=O)CN1C(=O)C2CCCCC2C1=O (stereo not drawn)		inconclusive [inhibitor, partial curve, poor fit]
CC(=O)Nc1ccc(NC(=S)Nc2ccccc2)cc1		inconclusive [inhibitor, full curve]
Cc1cccc(NC(=O)C(C)OC(=O)c2ccccc2NS(=O)(=O)c2cc(C)c(C)c([N+](=O)[O-])c2)c1 (stereo not drawn)		inconclusive [inhibitor, partial curve, poor fit]
